The results in this text go back to paper PMC9911399, “Two distinct binding modes provide the RNA-binding protein RbFox with extraordinary sequence specificity”.

T1: RBFOX1 RRM (Homo sapiens, UniProt Q9NWB1 109-208)
T1 sequence: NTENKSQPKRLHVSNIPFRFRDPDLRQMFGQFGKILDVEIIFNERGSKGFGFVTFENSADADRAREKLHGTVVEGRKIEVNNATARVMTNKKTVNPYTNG

B1: GAAAAGG (DNA:RNA)
RNA: GGGAGACCGGAAUUCAGAUUGUCCGAAAAGGUUAAAUCCCGUCGUAGCCACCA
DNA 1: CAATCTGAATTCCGGTCTCCC
DNA 2: TGGTGGCTACGACGGGATT
B2: GCUACAC (DNA:RNA)
RNA: B1 RNA with A26C, A27U, A29C, G30A, G31C
DNA 1: CAATCTGAATTCCGGTCTCCC
DNA 2: TGGTGGCTACGACGGGATT
B3: CUCGAGU (DNA:RNA)
RNA: B1 RNA with G25C, A26U, A27C, A28G, G31U
DNA 1: CAATCTGAATTCCGGTCTCCC
DNA 2: TGGTGGCTACGACGGGATT
B4: UUGCAAA (DNA:RNA)
RNA: B1 RNA with G25U, A26U, A27G, A28C, G30A, G31A
DNA 1: CAATCTGAATTCCGGTCTCCC
DNA 2: TGGTGGCTACGACGGGATT
B5: UGCUAUC (DNA:RNA)
RNA: B1 RNA with G25U, A26G, A27C, A28U, G30U, G31C
DNA 1: CAATCTGAATTCCGGTCTCCC
DNA 2: TGGTGGCTACGACGGGATT
B6: UCCGCAA (DNA:RNA)
RNA: GGGAGACCGGAAUUCAGAUUGUCCUCCGCAAUUAAAUCCCGUCGUAGCCACCA
DNA 1: CAATCTGAATTCCGGTCTCCC
DNA 2: TGGTGGCTACGACGGGATT
B7: ACGGCCC (DNA:RNA)
RNA: B6 RNA with U25A, C27G, A30C, A31C
DNA 1: CAATCTGAATTCCGGTCTCCC
DNA 2: TGGTGGCTACGACGGGATT
B8: AUUGAUG (DNA:RNA)
RNA: B1 RNA with G25A, A26U, A27U, A28G, G30U
DNA 1: CAATCTGAATTCCGGTCTCCC
DNA 2: TGGTGGCTACGACGGGATT
B9: UGUCCAG (DNA:RNA)
RNA: B6 RNA with C26G, C27U, G28C, A31G
DNA 1: CAATCTGAATTCCGGTCTCCC
DNA 2: TGGTGGCTACGACGGGATT
B10: CAAUCAG (DNA:RNA)
RNA: B1 RNA with G25C, A28U, A29C, G30A
DNA 1: CAATCTGAATTCCGGTCTCCC
DNA 2: TGGTGGCTACGACGGGATT
B11: CACGGGC (DNA:RNA)
RNA: B1 RNA with G25C, A27C, A28G, A29G, G31C
DNA 1: CAATCTGAATTCCGGTCTCCC
DNA 2: TGGTGGCTACGACGGGATT
B12: AUUUCUG (DNA:RNA)
RNA: B1 RNA with G25A, A26U, A27U, A28U, A29C, G30U
DNA 1: CAATCTGAATTCCGGTCTCCC
DNA 2: TGGTGGCTACGACGGGATT
B13: AGAGCAG (DNA:RNA)
RNA: B6 RNA with U25A, C26G, C27A, A31G
DNA 1: CAATCTGAATTCCGGTCTCCC
DNA 2: TGGTGGCTACGACGGGATT
B14: GCUGGGA (DNA:RNA)
RNA: B6 RNA with U25G, C27U, C29G, A30G
DNA 1: CAATCTGAATTCCGGTCTCCC
DNA 2: TGGTGGCTACGACGGGATT
B15: CGGUUUC (DNA:RNA)
RNA: GGGAGACCGGAAUUCAGAUUGUCCCGGUUUCUUAAAUCCCGUCGUAGCCACCA
DNA 1: CAATCTGAATTCCGGTCTCCC
DNA 2: TGGTGGCTACGACGGGATT
B16: CACUAGG (DNA:RNA)
RNA: B1 RNA with G25C, A27C, A28U
DNA 1: CAATCTGAATTCCGGTCTCCC
DNA 2: TGGTGGCTACGACGGGATT
B17: GACGUAA (DNA:RNA)
RNA: B6 RNA with U25G, C26A, C29U
DNA 1: CAATCTGAATTCCGGTCTCCC
DNA 2: TGGTGGCTACGACGGGATT
B18: UAACGUC (DNA:RNA)
RNA: B15 RNA with C25U, G26A, G27A, U28C, U29G
DNA 1: CAATCTGAATTCCGGTCTCCC
DNA 2: TGGTGGCTACGACGGGATT
B19: AGGCAAC (DNA:RNA)
RNA: B15 RNA with C25A, U28C, U29A, U30A
DNA 1: CAATCTGAATTCCGGTCTCCC
DNA 2: TGGTGGCTACGACGGGATT
B20: CUCUGGC (DNA:RNA)
RNA: B15 RNA with G26U, G27C, U29G, U30G
DNA 1: CAATCTGAATTCCGGTCTCCC
DNA 2: TGGTGGCTACGACGGGATT

Positions count from the first letter of the chain named. The list shows a part of the results.

The test has as its target T1, RBFOX1 RRM. Kind of test: EMSA; HiTS-Eq, 1 nM pool, 10 min; buffer printed only for the single-RNA assays: 10 mM Tris pH 7.5, 150 mM NaCl, 3.4 mM EDTA, 0.001% NP-40, 30 C. The following applies: tags: His6 N-terminal (pET28a); label: 5' 32P. The gist of the method:
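Relative association constants, normalised to the cognate motif, were derived by comparing read counts of each RNA species with those of the control reaction. The RNA sequenced was the free fraction, separated by 8% native PAGE after a 10 min equilibration in 50 µL of 1 nM 5′-radiolabelled RNA (7 randomized nucleotides) with increasing concentrations of purified wild-type or mutant RbFox RRM.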
For B1, the binding signal is 0.00901 KA relative to UGCAUGU.

As for B2, the binding signal is 0.00819 KA relative to UGCAUGU.

Regarding B3, the binding signal was 0.0119 KA relative to UGCAUGU.

On to B4, for which the binding signal was 0.0109 KA relative to UGCAUGU.

For the molecule B5, the binding signal was 0.014 KA relative to UGCAUGU.

In the case of B6, the binding signal was 0.00978 KA relative to UGCAUGU.

Regarding B7, the binding signal was 0.00325 KA relative to UGCAUGU.

Take B8: the binding signal was 0.0141 KA relative to UGCAUGU.

Consider B9, for which the binding signal was 0.0159 KA relative to UGCAUGU.

Turning to B10, the binding signal is 0.00649 KA relative to UGCAUGU.

B11: the binding signal is 0.00242 KA relative to UGCAUGU.

B12: the binding signal was 0.0168 KA relative to UGCAUGU.

On to B13, for which the binding signal is 0.00873 KA relative to UGCAUGU.

Take B14: the binding signal is 0.0174 KA relative to UGCAUGU.

With B15, the binding signal is 0.00701 KA relative to UGCAUGU.

With B16, the binding signal is 0.00412 KA relative to UGCAUGU.

Regarding B17, the binding signal was 0.00966 KA relative to UGCAUGU.

For B18, the binding signal is 0.0107 KA relative to UGCAUGU.

For B19, the binding signal is 0.00986 KA relative to UGCAUGU.

Turning to B20, the binding signal is 0.0159 KA relative to UGCAUGU.
